The full ranking holds about 33,000 sequences; the median of “E-score (-0.5 to 0.5)” is about -0.036, and the highest 2% start at about 0.37. The list shows a part of the results.
The sequences below were run against T1, Yer064c (UniProt P40041) (assay: PBM E-score (8-mer binding enrichment) (E-score (-0.5 to 0.5)); higher = stronger / more preferred TF binding; most listed sequences are background and not binding sites). Settings: protein concentration: 200 nM; construct: GST-full length.
T1 sequence: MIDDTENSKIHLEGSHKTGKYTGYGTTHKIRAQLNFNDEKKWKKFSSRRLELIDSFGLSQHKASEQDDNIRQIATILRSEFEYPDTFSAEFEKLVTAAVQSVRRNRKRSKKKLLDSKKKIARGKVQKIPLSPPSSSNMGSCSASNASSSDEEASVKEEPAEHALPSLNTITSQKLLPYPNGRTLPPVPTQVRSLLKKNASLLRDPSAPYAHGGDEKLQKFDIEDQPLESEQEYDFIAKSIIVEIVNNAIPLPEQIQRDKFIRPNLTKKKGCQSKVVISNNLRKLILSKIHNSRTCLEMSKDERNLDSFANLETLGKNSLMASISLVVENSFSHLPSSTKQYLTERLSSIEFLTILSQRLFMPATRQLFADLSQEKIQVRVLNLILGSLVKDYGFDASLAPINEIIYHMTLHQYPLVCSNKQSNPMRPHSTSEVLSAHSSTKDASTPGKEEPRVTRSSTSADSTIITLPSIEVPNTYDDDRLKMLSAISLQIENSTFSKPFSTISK
Protocol: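 Universal 'all 10-mer' protein binding microarrays (Agilent AMADID 015681) probed with GST-tagged S. cerevisiae TFs (full-length or DBD) made by in vitro transcription/translation (PURExpress), about 100-200 nM. Bound TF was detected with fluorescent anti-GST. Each ungapped 8-mer (which stands for itself and its reverse complement) is scored by the PBM enrichment score (E-score), a modified Wilcoxon-Mann-Whitney statistic from -0.5 to +0.5, computed with the Universal PBM Analysis Suite. Scale: above 0.35 generally sequence-specific binding.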

Sequence	PBM E-score
CTGTCACA	0.16
AAAAATTA	0.00283
GAAAGCCA	-0.256
ATGCGTGC	-0.115
GAATGTCC	-0.25
AACTTTAA	0.088
TAGCTGGA	-0.132
ATGAAGAC	0.218
AAGGATCA	-0.00659
ATAAGGCA	-0.242
CTCGTGGA	-0.0466
GAGCGTGA	0.114
CGTACGCC	-0.248
GGGAGCTA	-0.13
ATGAGTTG	0.194
ATGTAGAA	-0.1
CACAGTTA	0.123
CAATCAAG	0.212
AAATCGCC	-0.0827
CGAAAAGA	0.134
ACTAGGCG	0.151
CGAATCGA	-0.0366
TGCAAACA	-0.0702
ATCCCGCG	-3e-05
CGTTGCTC	-0.165

Sequence	PBM E-score
GTTGTAGA	-0.00357
AAGCAGAT	-0.0385
CGTGTCTC	0.15
ACGATACC	-0.0834
ATGTCACC	-0.0394
CGTACACA	0.136
TGCGATAA	0.152
CCTTCCTC	-0.146
CACTAACG	0.045
CGGTAAAA	-0.035
GACCTGCC	-0.227
GCGTGACC	-0.0719
GAATATTC	-0.161
CACAGAGA	-0.109
AAGCCCAA	-0.143
CAACCGGA	-0.109
CAATCTAG	0.0601
AACGTGGC	-0.0783
CGATCCGC	-0.0227
ACTCGGGA	0.0782
AGTATTAC	0.12
AGTTACTG	-0.0574
CCCTCAGG	-0.245
ACTGAAAT	0.267
ATGATGTC	0.148

Sequence	PBM E-score
AGAAATGG	-0.0961
CCTGGCTA	0.068
CAGGAGTC	0.394
CACAAGGC	-0.273
TGAGCTCA	0.228
AGACTGGA	0.0828
AATGTCCG	-0.125
CACATGTG	0.242
CATCAACA	0.0384
AAGCGAAC	-0.0971
ATACGACC	-0.0723
CGCGCTCA	0.0568
CTGGGCTA	-0.161
CTATTTCA	-0.00598
AAATCATA	0.387
AGCGACGG	-0.139
ACGAGCAG	-0.0979
CGCCAGGA	0.0372
ACATTGGC	0.00362
CATCTTCC	-0.0466
ACCGTCGT	-0.11
CACCGGAC	-0.11
GGGCGAAC	-0.022
CGGGCGAA	-0.264
GTCGGTTA	-0.00314

Sequence	PBM E-score
CGGAGAGA	-0.254
AGGCGAAA	-0.0906
TAGCGATA	-0.0837
CAGGATGG	-0.0373
CAGGTTAC	-0.0481
AACCATGA	0.254
ATCCAACG	-0.0882
AATGCATT	-0.128
ACCCAGTG	-0.135
AAGGAAAC	-0.248
GAATCCAA	0.0792
GACGGGAC	-0.185
ACACACTA	0.0396
ATGTCCGA	-0.183
AATGGGGC	-0.0696
AGTGGACC	-0.209
CAGGGATG	-0.026
CTGTAACC	0.0858
CATTAAAC	0.0756
CGATTTAA	0.188
GCTCTCCC	-0.234
AAAATATT	-0.054
AAAGCATG	-0.183
CCGGGAAA	-0.186
ATTATGCA	-0.0339

Sequence	PBM E-score
GGGAGGGA	-0.315
CATAAATC	0.102
GATTTGGA	0.0961
GAGTAACA	0.238
ATCTTCTA	0.0654
AAGGGTCA	-0.00535
CACCCTGC	0.118
ACGGAAGC	-0.103
TACCTCAA	-0.222
GCATTCCC	-0.238
CGCCAGCG	-0.242
AAGGTTTA	0.0546
ACATGATC	0.144
TTGTGAAA	-0.0107
ATATTCCC	-0.0548
GAATTGCC	-0.288
ATCAACTA	0.23
ACATACCC	0.0801
GCAAAGGA	-0.242
CAAGAGGA	0.0625
AAAGCAGA	-0.0106
GACCAACC	-0.131
CCTTAAAG	-0.0257
ATACAGAA	0.101
CATGGCGG	-0.109

Sequence	PBM E-score
CCGTGGCG	-0.0658
CATTTAGG	-0.233
AGCTGGTG	-0.104
GCTTCGGA	0.0239
CTGCAGAA	0.189
CCGTTCGA	0.0719
CGCGGCTC	-0.0621
CAAGTTCA	-0.0553
GATTATGA	0.38
CAGATGCA	-0.0152
AACCACGA	0.122
CATAACCC	-0.13
AGAAACAA	0.127
GAATTGTA	-0.0335
CTTGCAAA	0.00343
CCCGCCGA	-0.0331
ACATTAAG	-0.0309
ACCGGTTA	-0.178
CCCAAGGC	-0.137
GGAGGCTA	-0.16
GTTGGGTA	-0.0328
ATAATCGC	0.215
CCAAAAAG	0.0109
GTGTTATA	0.0231
ACCACGGG	-0.0993

Sequence	PBM E-score
AATTTTAC	0.0888
GCCCCCCC	-0.373
AATTAGCT	-0.0995
CTGCGGAA	-0.215
AGCGCGAA	-0.0273
GATATTCA	0.0482
AGGGTTCG	-0.311
TCCTTGAA	0.0522
CCAGGTCC	-0.206
ACGGATAT	-0.0603
TATTGACA	0.037
CGACATCG	-0.144
GTTATCTA	-0.0346
ACAGCCCT	-0.241
CTCTCACC	0.0427
GACCAGCA	-0.263
AACACCGT	-0.0515
CCCTCTTA	-0.103
CAACGTAC	-0.0947
AAGGCTTG	-0.0382
ACTAAATA	0.192
CCAGCGGA	-0.225

Reference: the supplement of paper PMC3334620
